Measurements from PMC12136788.
This is one part of the list.

B1: chr9:72354534:72354635:-|3pUTR|ENSG00000107372|msi1|FALSE|unique (ssRNA)
RNA: GGGAGUUCUACAGUCCGACGAUCGUCCUAGUUUUUACUUUUAUUCUUAAAGCAUUCAGUUUUGCUUUCAAUUUUAUGUACCUUAGUUCUGAGUUAGACCUGCAGAUGUGUACAGAUAGUUCAUAUUUAUGUAUUGCACAUAAUCAACAGAGGAUUGAGCAUCA
B2: chrX:100674576:100674677:+|3pUTR|ENSG00000102359|msi1|FALSE|bound_elsewhere (ssRNA)
RNA: GGGAGUUCUACAGUCCGACGAUCUUGCAAUCCACACCAAAUCAAUCUUUGAAAACAUUCCUCCAUUCGGUUCAUACAUACAGUAGAAACCACUGUGGCUGCCCUUAAUCCAGUGUGCUUAUAGGAAAUCAGUUAGCAGCUGACCAACAGAGGAUUGAGCAUCA
B3: chr10:74118286:74118577:+|3pUTR|ENSG00000035403|msi1|total|mutant (ssRNA)
RNA: GGGAGUUCUACAGUCCGACGAUCGUAUUCUCAAACACAGUUACACUUGUGCACCCUCUAUCCCAACCGGCAGACUGGGUUUCCCGCCCAUGGACUUCACAUAAGCUCAGAAUCCAAGUGAACACCCGCCAGACACUCUGCUCUCAACAGAGGAUUGAGCAUCA
B4: ENSG00000033178:stop:overlap|stop_codon|ENSG00000033178|stop_codon|NA|stop_codon (ssRNA)
RNA: GGGAGUUCUACAGUCCGACGAUCCUAUUGAAAUUUAUGGCUGUCCGAAUAUUUGUUUGUUAAUACAUAAGUGUUCUGUAUAUUAGUAUUCUCUUAUCCUUCACAUCCAGCUUUGCUACUCUGUGGCAUUAGACAACUUUUUUCCAACAGAGGAUUGAGCAUCA
B5: ENSG00000070961:be:win_2951|CDS|ENSG00000070961|bound_else_gene|NA|bound_elsewhere_windowed (ssRNA)
RNA: GGGAGUUCUACAGUCCGACGAUCUUUUCAACGAAAUAAAUGCCCGGAAAAUUCAUGGUGAAAGAAAUGUAUUCGAAGGAAUCUUUAACAAUGCCAUCUUCUGCACAAUUGUUUUAGGCACUUUUGUGGUACAGAUAAUAAUUGCAACAGAGGAUUGAGCAUCA
B6: chr1:160214333:160214525:+|3pUTR|ENSG00000162734|msi1|FALSE|unique (ssRNA)
RNA: GGGAGUUCUACAGUCCGACGAUCCUACAGUGUUUUCCUUUGCACCGAUCCCCACCCCAAUUCAAUCCCGGAAGGGACUUACUUAGGAAACCCUUCUUUACUAGAUAUCCUGGCCCCCUGGGCUUGUGAACACCUCCUAGCCACCAACAGAGGAUUGAGCAUCA
B7: chr5:24509697:24509799:-|CDS|ENSG00000040731|unk|FALSE|unique (ssRNA)
RNA: GGGAGUUCUACAGUCCGACGAUCACUCGACUAUGAGAGCCGAAGACUUUAUACUCUGAAAGUCGAAGCAGAAAACACCCAUGUAGAUCCCCGUUUUUAUUACCUAGGACCAUUUAAAGAUACUACCAUAGUGAAAAUCUCUAUCAACAGAGGAUUGAGCAUCA
B8: ENSG00000198589:be:win_9001|3pUTR|ENSG00000198589|bound_else_gene|NA|bound_elsewhere_windowed (ssRNA)
RNA: GGGAGUUCUACAGUCCGACGAUCUUCUUCAGCACUAAUAUUUCUGGGAUUUAAAUAGUAAUGUUUAAAUUAUGGUAAAUGUAAUUUAAAACAUCUCAAUUAAGUCUGUCUAUCAAUAUUGUUCUUCAAGCAUGUUUUAGACCUCAACAGAGGAUUGAGCAUCA
B9: chr4:145760401:145760502:-|3pUTR|ENSG00000151612|unk|FALSE|unique (ssRNA)
RNA: GGGAGUUCUACAGUCCGACGAUCUCCGUACUUUUCUCUGAAAGGAAUCUUGUCUUGUUAAACCCUAAAGAGAGUGUCCUUAAUAGCAAUCAGCACUUGUAAGCUUAUAUACUGGUGCAUUUGGUUUUCUGUUGGGUGAAUGCGCAACAGAGGAUUGAGCAUCA
B10: ENSG00000124766:be:win_2301|3pUTR|ENSG00000124766|bound_else_gene|NA|bound_elsewhere_windowed (ssRNA)
RNA: GGGAGUUCUACAGUCCGACGAUCGCUGGGCCUCCGCCUUCUUUUCUACGUGAAAUCAGUGAGGUGAGACUUCCCAGACCCCGGAGGCGUGGAGGAGAGGAGACUGUUUGAUGUGGUACAGGGGCAGUCAGUGGAGGGCGAGUGCAACAGAGGAUUGAGCAUCA
B11: chr3:165187899:165190830:-|CDS|ENSG00000121871|control|control|control (ssRNA)
RNA: GGGAGUUCUACAGUCCGACGAUCAAAUGGUGGGGUGGUGCUGUUUCCUCCUGGGGGAGGCUGUGGUAGUGGCAGUAUGCUACUAGAUCGAGAGAGGCCACAGCCUGCCCCCUGCACAGUGGGAUUUGUGGACUGUCUCUAUGGCAACAGAGGAUUGAGCAUCA
B12: chr4:56448489:56448593:+|CDS|ENSG00000128050|unk|total|mutant (ssRNA)
RNA: GGGAGUUCUACAGUCCGACGAUCCCCACAGUGGUCUGAGGAACAGCUGAUUGCUGCAAAAUUUUGCUUUGCUGGACUUCUUACCGGCCAGACUGAAGUGGAUAUCAUGAGUCAUGCUACACAGGCUAUAUUUGAAAUACUGGACAACAGAGGAUUGAGCAUCA
B13: chr20:38750096:38750197:+|CDS|ENSG00000101442|unk|FALSE|unique (ssRNA)
RNA: GGGAGUUCUACAGUCCGACGAUCGCAAAUGAUGUCUGAGCUUCUUUUUGAGUGCUACGGGAUUCCCAAGGUUGCCUAUGGAAUAGACAGCCUCUUCAGCUUCUACCACAAUAAGCCAAAGAACUCGAUGUGCAGUGGGCUAAUCAACAGAGGAUUGAGCAUCA
B14: chr19:39539560:39539696:-|CDS|ENSG00000176396|unk|FALSE|unique (ssRNA)
RNA: GGGAGUUCUACAGUCCGACGAUCCGGGAACGGAGGCCUGGCUGCGUUGCCCUAUCUCCGUCUCCGCCACCCACUUAGCGUUUUAGGCAUCAAUUACCAGCAGUUUCUCCGCCACUAUCUGGAAAAUUACCCGAUUGCUCCCGGCAACAGAGGAUUGAGCAUCA

Target: T1, UNK ZnF1-6 (called full-length) (human, UniProt Q9C0B0 30-357)
T1 sequence: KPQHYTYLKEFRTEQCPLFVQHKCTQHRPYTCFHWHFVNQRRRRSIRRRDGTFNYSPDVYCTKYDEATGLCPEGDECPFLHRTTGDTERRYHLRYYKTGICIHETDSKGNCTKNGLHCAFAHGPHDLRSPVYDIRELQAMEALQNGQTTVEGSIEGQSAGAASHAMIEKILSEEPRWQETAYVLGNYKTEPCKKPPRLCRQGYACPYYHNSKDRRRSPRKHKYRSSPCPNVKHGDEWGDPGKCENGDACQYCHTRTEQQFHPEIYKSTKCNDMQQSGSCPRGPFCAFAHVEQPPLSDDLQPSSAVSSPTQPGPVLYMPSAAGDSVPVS
Experiment: nsRBNS (natural sequence RNA bind-n-seq); RBNS binding buffer (assumed for nsRBNS): 25 mM Tris pH 7.5, 150 mM KCl, 3 mM MgCl2, 0.01% Triton X-100, 500 ug/ml BSA, 20 U/ml SUPERase-In, 4 C; UNK is unkempt and MSI1 is Musashi-1; names of the RNAs are library labels; protein concentration not given here; high values mean tight binding

Question: With B1 as the binder, how does the binding signal read?
Answer: 37.4 enrichment R

Question: B2 was tested. Which binding signal did it give?
Answer: 0.532 enrichment R

Question: How did the binding signal turn out when B3 was run?
Answer: 0.532 enrichment R

Question: B4 was tested. Which binding signal did it give?
Answer: 0.919 enrichment R

Question: How did the binding signal turn out when B5 was run?
Answer: 0.295 enrichment R

Question: Which binding signal does the source give for B6 here?
Answer: 2.33 enrichment R

Question: Which binding signal does the source give for B7 here?
Answer: 1.94 enrichment R

Question: Which binding signal does the source give for B8 here?
Answer: 0.446 enrichment R

Question: Which binding signal does the source give for B9 here?
Answer: 0.364 enrichment R

Question: With B10 as the binder, how does the binding signal read?
Answer: 0.985 enrichment R

Question: How did the binding signal turn out when B11 was run?
Answer: 0.835 enrichment R

Question: With B12 as the binder, how does the binding signal read?
Answer: 0.456 enrichment R

Question: For B13, which binding signal is on record?
Answer: 0.433 enrichment R

Question: For B14, which binding signal is on record?
Answer: 1.3 enrichment R
